Reference: the RNAGym collection of RNA variant scans (doi:10.1093/nar/gkz1192)
Read counts are not given, so values of variants with three or more changes are uncertain.

B1: CPEB3 Ribozyme (parent)
chain: UAACAGGGGGCCACAGCAGAAGCGUUCACGUCGCAGCCCCUGUCAGAUUCUGGUGAAUCUGCGAAUUCUGCUGUAUAUCUC

Variants of: B1
Experiment: self-cleavage, relative activity (ratio to wild type); higher = more cleavage; in vitro, sequencing
Procedure, shortened: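 Barcoded CPEB3 ribozyme mutants, produced by rounds of error-prone PCR, self-cleaved while being transcribed with T7 RNA polymerase for 5 hours at 37°C and during a subsequent 15 min DNase I step before EDTA was added. Sequencing of template-switched cDNA on Illumina gave cleaved and total reads, and DNA sequencing assigned barcodes to variants. Each variant's relative activity is its cleaved/total read fraction divided by the unmutated ribozyme's fraction, averaged across three batches. A variant needed a minimum of 5 reads.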
Work on U25C U26C U76C yielded a self-cleavage of 0.15. Work on G24U U67C G70U yielded a self-cleavage of 0.13. U25C G30A C37U A56U showed a self-cleavage of 0.13. Variant U25C U43C A56G A77G has a self-cleavage of 0.14. U25C U31C A35G U43A showed a self-cleavage of 0.2. U25C G55U A64G U78C showed a self-cleavage of 0.1. G24C U31C U41A U72C U74C U76C showed a self-cleavage of 0.16. Work on U25C U49C G55U G61C yielded a self-cleavage of 0.07. In the case of U25C A56G U66C U78C U80C, the self-cleavage is reported as 0.16. U25A A47G U54A showed a self-cleavage of 0.11. Work on U25C C40U U78A yielded a self-cleavage of 0.27. For U25C U51C A64U U69A, the self-cleavage was 0.04. With U25C U41A U43A the self-cleavage was 0.29. In the case of U25C U26C U43G U49C A64G, the self-cleavage is reported as 0.12. With U25A G52U U60C the self-cleavage was 0.12. For U25C U41C U48A, the self-cleavage was 0.16. Work on U25C U43A U54C A56U U69A yielded a self-cleavage of 0.13. Work on U25C A28G U43C C68A yielded a self-cleavage of 0.07. U25A U31C U51C A56G U76A U78C showed a self-cleavage of 0.08. Variant U25C A28C G36A U58C U60C has a self-cleavage of 0.08. G24U U25C U43C C44U U60C gave a self-cleavage of 0.22. U25A U26A U48C G63U U72A gave a self-cleavage of 0.06. For U25C C27U C62U, the self-cleavage was 0.11. Work on U25C U49A U72C U74A yielded a self-cleavage of 0.11. Variant U25A U43C A57G has a self-cleavage of 0.08. In the case of U25C U66C U76C A77G, the self-cleavage is reported as 0.16. With U25C U31A U41C U67C the self-cleavage was 0.41. U25C A35G G36U showed a self-cleavage of 0.21. In the case of U25C U31A A35G, the self-cleavage is reported as 0.08. Work on U25C A35G A57G U60C U80C yielded a self-cleavage of 0.13. With G24U U31C A35G U41A U49C U51A U69A the self-cleavage was 0.11. U25A G36U U69C showed a self-cleavage of 0.11. Work on U25A A28U A45U U80G yielded a self-cleavage of 0.19. U25C A57G U69A showed a self-cleavage of 0.18. U25A U51C C62A A65G U67C U80C showed a self-cleavage of 0.09. U25C C34G C38G A57G U58A gave a self-cleavage of 0.13. Work on U25C U41C A45G U48C A64U yielded a self-cleavage of 0.18. In the case of U25C A47U U48C A65G U69C, the self-cleavage is reported as 0.1. For U25C U49C U72C U74C, the self-cleavage was 0.17. For U25A G30A A45G U51C U72C A77U, the self-cleavage was 0.15. U25C A28C A64G U80C gave a self-cleavage of 0.21. For U25C U43C U49C U60C, the self-cleavage was 0.23. U25C A77G U78C showed a self-cleavage of 0.11. In the case of U25A G63A A64G, the self-cleavage is reported as 0.16. Work on U25C U58C U72G yielded a self-cleavage of 0.48. U25C U41C A45U U48C U60C showed a self-cleavage of 0.09. U25C U48C U67C gave a self-cleavage of 0.11. Variant U25C U31C A45G has a self-cleavage of 0.12. For U25C A35G U41C A56G A65G U66A, the self-cleavage was 0.09. U25C A28G A35G C40U G53C U78G showed a self-cleavage of 0.13. In the case of U25C U49A U54C U80C, the self-cleavage is reported as 0.08. Work on U25C U41C G46A yielded a self-cleavage of 0.09. U25C G52C U67C gave a self-cleavage of 0.14. Work on U25C U41C G46A U66C U78C yielded a self-cleavage of 0.05. U25C C34U A45U U67A showed a self-cleavage of 0.06. For U25C U51C G61C C62A U80C, the self-cleavage was 0.14. U25C G46A U76A showed a self-cleavage of 0.21. Work on U25C C62U A65G U72G C81A yielded a self-cleavage of 0.1. With U25C A45G A56G the self-cleavage was 0.27. Work on U25A U66C U69C U72C yielded a self-cleavage of 0.19. U25A A35G U72C U80A showed a self-cleavage of 0.39. Variant U25C C40U A56G A64G has a self-cleavage of 0.19. In the case of U25C A28G U43C A65U U76A, the self-cleavage is reported as 0.05. For U25A U67C U69A, the self-cleavage was 0.15. For U25C U54C U74C U78C, the self-cleavage was 0.14. For U25C A28G U49C A65U, the self-cleavage was 0.04. Variant U25C U49C U78G has a self-cleavage of 0.18. G24U A45U U58A A64U gave a self-cleavage of 0.1. U25C A35G U51G U67A G70A U74A showed a self-cleavage of 0.06. U25C A35G U67A showed a self-cleavage of 0.21. With U25C U43C U54A U74C the self-cleavage was 0.31. Variant U25C U26C A56G has a self-cleavage of 0.27. Variant U25C U41C U67C U69C U72A has a self-cleavage of 0.38. For U25C C38U U41A U54A A56G U66C, the self-cleavage was 0.17. Variant U25A C59U A77G has a self-cleavage of 0.14. In the case of U25C U41G U72C, the self-cleavage is reported as 0.23. Variant U25C U48C U74C U78C has a self-cleavage of 0.24. In the case of U25C A45U U48C A56U, the self-cleavage is reported as 0.06. For U25C A35U A64U U74C, the self-cleavage was 0.09. Variant U25C A45C A47G A57C U58C has a self-cleavage of 0.03. Work on U25C A28U A45G U67A yielded a self-cleavage of 0.1. Work on U25A A35G C38G C62G yielded a self-cleavage of 0.29. With G24C U74C A75G the self-cleavage was 0.29. Variant U25C U31C U67C has a self-cleavage of 0.14. U25C C38U A45U U54C U66A gave a self-cleavage of 0.07. Variant U25C A57G U58C U72A has a self-cleavage of 0.22. Variant U25C C37U U54C has a self-cleavage of 0.22. Variant U25C C44U A56U U69C U72C has a self-cleavage of 0.09. With U25A U26C U43A A56G A57G U58C A64U the self-cleavage was 0.06. In the case of U25C U31C G33U G52A A65G U80C, the self-cleavage is reported as 0.22. Work on U25A U54A U60A G73A yielded a self-cleavage of 0.07. U25A G36U U54G A65U A75U U76A gave a self-cleavage of 0.06. Work on U25C C34U U69C yielded a self-cleavage of 0.1. With U25C A28G A57G U60C G73A the self-cleavage was 0.38. Work on U25C G61U U78A yielded a self-cleavage of 0.38. In the case of U25C U41G U78C, the self-cleavage is reported as 0.3. In the case of U25C U26C U72A, the self-cleavage is reported as 0.12. With U25A U43C U48A the self-cleavage was 0.06. With U25C U31A U54A the self-cleavage was 0.08. With U25A C50G U58A U66C U80A the self-cleavage was 0.05. With U25A C40U U48C the self-cleavage was 0.15. Work on U25A U41C A45U yielded a self-cleavage of 0.28. With U25C U54A A77G the self-cleavage was 0.22. For U25C A45U A57G, the self-cleavage was 0.39. In the case of U25C U31A U80A, the self-cleavage is reported as 0.16. With U25A U43C A56G U69C the self-cleavage was 0.08. Work on U25C A57G U69C U74C yielded a self-cleavage of 0.07. For U25C A35G C40U G42A A45U U60C, the self-cleavage was 0.09. With U25C A35G U51A U72C the self-cleavage was 0.35. Work on U25C C44U U80C yielded a self-cleavage of 0.22. U25A U51C U60C showed a self-cleavage of 0.12. U25C A35G U43C A57G C59U U78G showed a self-cleavage of 0.2. U25C U41G U54C U80C showed a self-cleavage of 0.13. Variant U25C U31A C39U C40A U41C U72C has a self-cleavage of 0.18. Variant U25C U43C U49A G61C has a self-cleavage of 0.21. U25C G70A A75G U76C gave a self-cleavage of 0.14. With U25C U72A A75U the self-cleavage was 0.08. Work on U25C U76G U78C yielded a self-cleavage of 0.46. U25C U31C A35U showed a self-cleavage of 0.28. Work on U25C G30U A77U yielded a self-cleavage of 0.16. With U25C G61C U72G the self-cleavage was 0.12. Work on U25C U31A U41A A57U U78C yielded a self-cleavage of 0.13. Variant U25C U31C U69C has a self-cleavage of 0.09. For U25A U43G A64U U72C, the self-cleavage was 0.35. Variant U25C C50U U60C A64G has a self-cleavage of 0.12. In the case of U25C U43A A45U U78C, the self-cleavage is reported as 0.17. For U25C A65U U78C, the self-cleavage was 0.2. For U25C G33A U72A, the self-cleavage was 0.46. For U25C U26A G33A A45G, the self-cleavage was 0.15. In the case of U25C C38A U49C A75G, the self-cleavage is reported as 0.04. In the case of U25C U43A A47G, the self-cleavage is reported as 0.28. In the case of U25C A28U A45G A47G U51C A77G, the self-cleavage is reported as 0.1. In the case of G24C U49C U78G, the self-cleavage is reported as 0.22. U25A A28C U41C A45G U69G showed a self-cleavage of 0.12. With U25C U26A A28G U41C A56C the self-cleavage was 0.06. Variant U25A A45C U51A has a self-cleavage of 0.22. For U25C A35G U58G, the self-cleavage was 0.26. U25C A35G U58A showed a self-cleavage of 0.2. With U25C A57U G61A the self-cleavage was 0.15. U25C U26C C29U A64U showed a self-cleavage of 0.49. U25C U60C U66C gave a self-cleavage of 0.37. U25A U41C A65G showed a self-cleavage of 0.49. For U25C A35G A45U U54A U58A, the self-cleavage was 0.08. For U25A C27A U49A A65G, the self-cleavage was 0.08. Variant U25C U26C U49C U60A has a self-cleavage of 0.08. In the case of U25C U49C A57G U60C A65U U80C, the self-cleavage is reported as 0.12. For U25C C44U U51A U80C, the self-cleavage was 0.07. Work on U25C A28G U76C yielded a self-cleavage of 0.46. With U25A A77U U78C the self-cleavage was 0.22. U25C U49C C62G U80C gave a self-cleavage of 0.14. For U25C U60C U66C A77G, the self-cleavage was 0.17. Work on U25C U41G U54C U78C yielded a self-cleavage of 0.14. With U25C U51A U58C the self-cleavage was 0.09. In the case of U25A A35G U58C, the self-cleavage is reported as 0.13. Variant U25C C32A U72C has a self-cleavage of 0.1. Variant U25C A35U U51C U54C A64G U69A U72C has a self-cleavage of 0.04. Work on U25A U54A C62U A77U yielded a self-cleavage of 0.19. With U25C A47G U51A U54C C62U A64U U69G the self-cleavage was 0.05. In the case of G24U U26A U31C U43A U54C, the self-cleavage is reported as 0.15. Work on U25C C32A C38U U78C yielded a self-cleavage of 0.14. Variant U25C G30C A56U has a self-cleavage of 0.06. U25C A28G U31G A57C U76C U78C showed a self-cleavage of 0.08. U25C A47U A65U C71G showed a self-cleavage of 0.04. Variant U25C A28U A64G U72C has a self-cleavage of 0.17. U25C U48C U74A U78C showed a self-cleavage of 0.39. Work on U25C G63A A65G yielded a self-cleavage of 0.13. Variant U25C U26G A45U A47G U60C U66C has a self-cleavage of 0.14.
